Some entries of the source have several records that differ or are many. The list is limited to them. An entry can have further records. The records of an entry repeat one measurement in other runs, samples, wells, individuals or studies. Additions like (4×) count equal records among those shown. Dates in brackets are months of testing.
Test system: 266295-075-R-J1-PDC spheroid viability
Experiment: Anticancer human tumor 266295-075-R-J1-PDC patient-derived head and neck squamous carcinoma cell line growth inhibition [POLQ]
Details: stronger effect = lower value, spheroids with HUVEC and MSC
Experimental: Multicellular complex tumor spheroid response to Polymerase (POL) inhibitors (novobiocin, ART-558, RP6685) in combination with a variety of drugs and investigational agents in selected tumor cell lines
The POL inhibitors (novobiocin, ART-558, and RP6685) were evaluated both individually and in combination with standard of care and investigational anticancer small molecules within a complex spheroid model of solid tumors. . Complex spheroids include a stromal component modeled by human endothelial cells (HUVEC) and fibroblasts modeled by human mesenchymal stem cells (MSCs). The concentration ranges selected for each drug and investigational agent were based upon clinically achievable concentrations if the clinical Cmax of the agent was known.
Compounds. The drugs and investigational agents: novobiocin (NSC847541), ART-558 (NSC835418), RP-6685 (NSC848927), peposertib (NSC802822), ceralasertib (NSC780249), elimusertib (NSC800525), camonsertib (NSC841442), AZD-1390 (NSC803789), olaparib (NSC753686), talazoparib (NSC767125), rucaparib (NSC756644), sotorasib (NSC818433), MRTX-1133 (NSC836407), SN-38 (NSC673596), topotecan (NSC609699), epotoside (NSC141540), doxorubicin (NSC123127), gemcitabine (NSC613327), 5-fluorouracil (NSC19893), paclitaxel (NSC125973), vemurafenib (NSC761431), MSA-2 (NSC828583), SN-011 (NSC837082), adavosertib (NSC754352), prexasertib (NSC758257), carboplatin (NSC241240) and oxaliplatin (NSC266046), were obtained from the National Cancer Institute (NCI) Developmental Therapeutics Program Chemical Repository (21). The FDA-approved anticancer drug set is available from the Developmental Therapeutics Program at https://dtp.cancer.gov/organization/dscb/obtaining/. […] The stock solutions were prepared in dimethyl sulfoxide (DMSO, Sigma-Aldrich, St. Louis, MO, cat. D2650), except for the platinum compounds which were prepared in saline (Quality Biological, Gaithersburg, MD, cat. 114-055-101), at 800-fold the tested concentration and stored at -70 degrees C prior to their use. All drugs and investigational agents were tested over a range starting from a high concentration at or near the clinical Cmax and decreasing in half-log increments. If the clinical Cmax for an agent had not been determined, the highest concentration tested was 10 microM, except for SN-38, which was tested at a high concentration of 1 microM.
Cell Culture. All cells were maintained in an incubator at 37 degrees C and 5% CO2 with 95% humidity. The PDC lines were cultured according to standard operating procedures established by the NCI PDMR (https://pdmr.cancer.gov). Table 3 of the manuscript, lists the cell lines along with the number of the three cell types plated to form the mct-spheroids and media for tumor cell growth. After thawing, all PDC lines, except 997537-175-T-J1-PDC and 415267-285-R-J2-PDC, were cultured in Matrigel-coated flasks prepared with a working solution of 1X Ham's F-12 nutrient mix, without supplementation (Thermo Fisher Scientific, cat. 11765054), 100 U/mL penicillin-streptomycin (Thermo Fisher Scientific, cat. 15140122), and 2.5% Matrigel (Corning Inc., Corning, NY, cat. 354248) for the first three passages. The two PDC lines 997537-175-T-J1-PDC and 415267-285-R-J2-PDC were cultured on uncoated flasks. The 857933-349-R-J2-PDC line was cultured in 6C/Colon 1B media containing advanced DMEM/F-12 (Thermo Fisher Scientific, cat. 12634028), 10 mM HEPES (Thermo Fisher Scientific, cat. 15630080), 1X GlutaMAX supplement (Thermo Fisher Scientific, cat. 35050061), 0.1 mg/mL primocin (InvivoGen, San Diego, CA, cat. ant-pm-2), 10% defined fetal bovine serum, heat inactivated (HyClone Laboratories Inc., Logan, UT, cat. SH30070.03HI), 50% L-WRN conditioned media (ATCC, cat. CRL-3276), 1.25 mM N-Acetyl-L-cysteine (Sigma-Aldrich, cat. A9165), 10 mM nicotinamide (Sigma-Aldrich, cat. N0636), 1X B-27 supplement (Thermo Fisher Scientific, cat. 17504044), 1X N-2 supplement (Thermo Fisher Scientific, cat. […]
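Also: spheroids exposed to compounds for seven days before readout.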

SMILES	viability, T/C (compound alone 0.0316 µM)	viability, T/C (compound alone 0.1 µM)	viability, T/C (compound alone 1 µM)	viability, T/C (compound alone 0.316 µM)	viability, T/C (compound alone 3.16 µM)	viability, T/C (compound alone 10 µM)
Nc1ccc(C#CCN(C(=O)Cc2ncc(C(F)(F)F)cc2C(F)(F)F)c2ccc(F)cc2)nn1	59.1, 76.1, 88.7, 68.8, 58.2, 78, 80.5, 86.8, 71.8, 71.4, 75.4, 81.3, 103%	99, 131, 102, 77.4, 91.4, 80, 111, 96.6, 93.5, 97.2, 106, 103, 107%	80.8, 93.2, 102, 95.5, 93, 89.9, 92.2, 124, 97.1, 106 (2×), 90.4, 97.4%			
COC1C(OC(N)=O)C(O)C(Oc2ccc3c(O)c(NC(=O)c4ccc(O)c(CC=C(C)C)c4)c(=O)oc3c2C)OC1(C)C (stereo not drawn)		89.1, 98.4, 103, 86.1, 91.6, 92.3, 104, 115, 106, 93.1, 85.8, 95.8, 91%		96.4, 110, 91.8, 81.9, 92.2, 91.4, 94.2, 112, 98.2, 97.5, 83.5, 96.5, 103%	104 (2×), 95.4, 107, 103, 96.8, 96.5, 91.1, 110, 101, 82.3, 95.7, 89.8%	102, 92.1, 106, 100, 94.7, 95.8, 94.1, 118, 115, 107, 88.8, 105, 98.3%
Cc1cccc(N(C)C(=O)C2C(O)CCN2c2nc(C)cc(C(F)(F)F)c2C#N)c1 (stereo not drawn)	91.7, 97.2, 100, 87.6, 103, 99.7, 75.1, 93% [2023-10] and 65.7, 79.5, 60.8, 70.4, 79.8% [2023-11]	96, 91, 94.9, 101, 110, 91.2, 72.7, 85.8% [2023-10] and 87.6, 105, 91.2, 114% [2023-11]	93, 106 (2×), 91.3, 84.3, 82.9, 94.8, 92.4% [2023-10] and 87, 102, 106, 110, 105% [2023-11]	92.5, 102, 93, 112, 103, 90.8, 80.9, 90.9% [2023-10] and 84.5, 83.3, 87.1, 93.7, 99.4% [2023-11]	97.9, 106, 98.9, 99.6, 91.6, 97.4, 84.3, 94.2% [2023-10] and 101, 91, 108, 115, 106% [2023-11]	104, 97.1, 109 (2×), 118, 101, 107, 82.3% [2023-10] and 121, 135, 106, 93.2, 112% [2023-11]

Source: PubChem BioAssay AID1963853 (Molecular Pharmacology Branch, DTP, NCI, 2024)
